{
  "source": "the supplement of paper PMC8728848",
  "binders": {"B1": {"name": "PpFlo1 (Pichia pastoris) (protein)", "chain": "MGSSHHHHHHSSGLVPRGSHMQESGDGDISDSAYACDIDATRYDGFNATIYEFQPGDGRLTRDPVFMSTGYLNRTQLHSITGVTDPGFSIYTPGVPTTTLYGIPNVNWENLLLELKGYFRAEVSGDYGLSLRNIDDSAILFFGKETAFQCCNENSISNEASTDYSLFTIFRQEGDETTNLDSFTYTQYLEAGKYYPVRTFFVNIERHAVFNFTMTLPDGTELTDFHNYIYQFGALDEEQCQA"}},
  "test_in_all_cases": "glycan array binding signal (z-score within array); higher = stronger binding",
  "details_in_all_cases": "glycan notation: IUPAC condensed, linker removed",
  "key": {"[1]": {"target": "Gal(b1-3)GlcNAc(b1-6)Gal(b1-4)GlcNAc", "outline": "(§1)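 The binding signal is a Z-score computed within each array. Data were drawn from 3228 arrays in the Consortium for Functional Glycomics database, restricted to those with a known protein sequence. Scores were averaged over arrays of the same protein sequence at different concentrations or buffers, and over linkers, and negative values can be taken as non-binding.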"}, "[2]": {"target": "Gal(b1-3)GlcNAc(b1-6)GalNAc", "outline": "as §1"}, "[3]": {"target": "Gal(b1-3)GlcNAc(b1-6)[Gal(b1-3)]GalNAc", "outline": "as §1"}, "Gal(b1-3)GlcNAc6S": {"target": "Gal(b1-3)GlcNAc6S", "outline": "as §1"}, "[4]": {"target": "Gal(b1-3)[Fuc(a1-4)]GlcNAc", "outline": "as §1"}, "[5]": {"target": "Gal(b1-3)[Fuc(a1-4)]GlcNAc(b1-2)Man", "outline": "as §1"}, "[6]": {"target": "Gal(b1-3)[Fuc(a1-4)]GlcNAc(b1-2)Man(a1-3)[Gal(b1-3)[Fuc(a1-4)]GlcNAc(b1-2)Man(a1-6)]Man(b1-4)GlcNAc(b1-4)GlcNAc", "outline": "as §1"}, "[7]": {"target": "Gal(b1-3)[Fuc(a1-4)]GlcNAc(b1-2)Man(a1-3)[Gal(b1-3)[Fuc(a1-4)]GlcNAc(b1-2)Man(a1-6)]Man(b1-4)GlcNAc(b1-4)[Fuc(a1-6)]GlcNAc", "outline": "as §1"}, "[8]": {"target": "Gal(b1-3)[Fuc(a1-4)]GlcNAc(b1-3)Gal(b1-3)[Fuc(a1-4)]GlcNAc", "outline": "as §1"}, "[9]": {"target": "Gal(b1-3)[Fuc(a1-4)]GlcNAc(b1-3)Gal(b1-4)GlcNAc", "outline": "as §1"}, "[10]": {"target": "Gal(b1-3)[Fuc(a1-4)]GlcNAc(b1-3)Gal(b1-4)[Fuc(a1-3)]GlcNAc", "outline": "as §1"}, "[11]": {"target": "Gal(b1-3)[Fuc(a1-4)]GlcNAc(b1-6)GalNAc", "outline": "as §1"}, "[12]": {"target": "Gal(b1-3)[GlcNAc(b1-6)]GalNAc", "outline": "as §1"}, "[13]": {"target": "Gal(b1-3)[Neu5Ac(a2-6)]GalNAc", "outline": "as §1"}, "[14]": {"target": "Gal(b1-3)[Neu5Ac(a2-6)]GlcNAc(b1-4)Gal(b1-4)Glc", "outline": "as §1"}, "[15]": {"target": "Gal(b1-3)[Neu5Ac(a2-6)]GlcNAc(b1-6)Gal(b1-4)Glc", "outline": "as §1"}, "[16]": {"target": "Gal(b1-3)[Neu5Ac(b2-6)]GalNAc", "outline": "as §1"}, "Gal(b1-4)Gal": {"target": "Gal(b1-4)Gal", "outline": "as §1"}, "[17]": {"target": "Gal(b1-4)GalNAc(a1-3)[Fuc(a1-2)]Gal(b1-4)GlcNAc", "outline": "as §1"}, "[18]": {"target": "Gal(b1-4)GalNAc(b1-3)[Fuc(a1-2)]Gal(b1-4)GlcNAc", "outline": "as §1"}, "Gal(b1-4)Glc": {"target": "Gal(b1-4)Glc", "outline": "as §1"}, "Gal(b1-4)Glc6S": {"target": "Gal(b1-4)Glc6S", "outline": "as §1"}, "Gal(b1-4)GlcNAc": {"target": "Gal(b1-4)GlcNAc", "outline": "as §1"}, "[19]": {"target": "Gal(b1-4)GlcNAc(a1-6)Gal(b1-4)GlcNAc", "outline": "as §1"}, "Gal(b1-4)GlcNAc(b1-2)Man": {"target": "Gal(b1-4)GlcNAc(b1-2)Man", "outline": "as §1"}, "[20]": {"target": "Gal(b1-4)GlcNAc(b1-2)Man(a1-3)Man(b1-4)GlcNAc(b1-4)GlcNAc", "outline": "as §1"}, "[21]": {"target": "Gal(b1-4)GlcNAc(b1-2)Man(a1-3)[Gal(b1-4)GlcNAc(b1-2)Man(a1-6)]Man(b1-4)GlcNAc(b1-4)GlcNAc", "outline": "as §1"}, "[22]": {"target": "Gal(b1-4)GlcNAc(b1-2)Man(a1-3)[Gal(b1-4)GlcNAc(b1-2)Man(a1-6)]Man(b1-4)GlcNAc(b1-4)[Fuc(a1-6)]GlcNAc", "outline": "as §1"}, "[23]": {"target": "Gal(b1-4)GlcNAc(b1-2)Man(a1-3)[Gal(b1-4)GlcNAc(b1-2)Man(a1-6)][Gal(b1-4)GlcNAc(b1-4)]Man(b1-4)GlcNAc(b1-4)[Fuc(a1-6)]GlcNAc", "outline": "as §1"}, "[24]": {"target": "Gal(b1-4)GlcNAc(b1-2)Man(a1-3)[Gal(b1-4)GlcNAc(b1-2)Man(a1-6)][GlcNAc(b1-4)]Man(b1-4)GlcNAc(b1-4)[Fuc(a1-6)]GlcNAc", "outline": "as §1"}, "[25]": {"target": "Gal(b1-4)GlcNAc(b1-2)Man(a1-3)[Gal(b1-4)GlcNAc(b1-2)][GlcNAc(b1-4)]Man(b1-4)GlcNAc(b1-4)GlcNAc", "outline": "as §1"}, "[26]": {"target": "Gal(b1-4)GlcNAc(b1-2)Man(a1-3)[GlcNAc(b1-2)Man(a1-6)]Man(b1-4)GlcNAc(b1-4)GlcNAc", "outline": "as §1"}, "[27]": {"target": "Gal(b1-4)GlcNAc(b1-2)Man(a1-3)[GlcNAc(b1-4)][Gal(b1-4)GlcNAc(b1-2)Man(a1-6)]Man(b1-4)GlcNAc(b1-4)GlcNAc", "outline": "as §1"}, "[28]": {"target": "Gal(b1-4)GlcNAc(b1-2)Man(a1-3)[Man(a1-6)]Man(b1-4)GlcNAc(b1-4)GlcNAc", "outline": "as §1"}, "[29]": {"target": "Gal(b1-4)GlcNAc(b1-2)Man(a1-6)Man(b1-4)GlcNAc(b1-4)GlcNAc", "outline": "as §1"}, "[30]": {"target": "Gal(b1-4)GlcNAc(b1-2)Man(a1-6)[GlcNAc(b1-2)Man(a1-3)]Man(b1-4)GlcNAc(b1-4)GlcNAc", "outline": "as §1"}, "[31]": {"target": "Gal(b1-4)GlcNAc(b1-2)Man(a1-6)[Man(a1-3)]Man(b1-4)GlcNAc(b1-4)GlcNAc", "outline": "as §1"}, "[32]": {"target": "Gal(b1-4)GlcNAc(b1-2)[Gal(b1-4)GlcNAc(b1-4)]Man(a1-3)[Gal(b1-4)GlcNAc(b1-2)Man(a1-6)]Man(b1-4)GlcNAc(b1-4)GlcNAc", "outline": "as §1"}},
  "note": "This is one part of the list.",
  "data": [
    {"binder": "B1", "values": [
      {"measurement": "glycan array binding signal (z-score)", "setting": "[1]", "result": -0.353},
      {"measurement": "glycan array binding signal (z-score)", "setting": "[2]", "result": -0.654},
      {"measurement": "glycan array binding signal (z-score)", "setting": "[3]", "result": -0.33},
      {"measurement": "glycan array binding signal (z-score)", "setting": "Gal(b1-3)GlcNAc6S", "result": -0.012},
      {"measurement": "glycan array binding signal (z-score)", "setting": "[4]", "result": -0.359},
      {"measurement": "glycan array binding signal (z-score)", "setting": "[5]", "result": 1.02},
      {"measurement": "glycan array binding signal (z-score)", "setting": "[6]", "result": -0.787},
      {"measurement": "glycan array binding signal (z-score)", "setting": "[7]", "result": 0.159},
      {"measurement": "glycan array binding signal (z-score)", "setting": "[8]", "result": -0.018},
      {"measurement": "glycan array binding signal (z-score)", "setting": "[9]", "result": -0.765},
      {"measurement": "glycan array binding signal (z-score)", "setting": "[10]", "result": 1.2},
      {"measurement": "glycan array binding signal (z-score)", "setting": "[11]", "result": 0.132},
      {"measurement": "glycan array binding signal (z-score)", "setting": "[12]", "result": 0.099},
      {"measurement": "glycan array binding signal (z-score)", "setting": "[13]", "result": 0.609},
      {"measurement": "glycan array binding signal (z-score)", "setting": "[14]", "result": 0.298},
      {"measurement": "glycan array binding signal (z-score)", "setting": "[15]", "result": 1.21},
      {"measurement": "glycan array binding signal (z-score)", "setting": "[16]", "result": -0.233},
      {"measurement": "glycan array binding signal (z-score)", "setting": "Gal(b1-4)Gal", "result": -0.334},
      {"measurement": "glycan array binding signal (z-score)", "setting": "[17]", "result": -0.298},
      {"measurement": "glycan array binding signal (z-score)", "setting": "[18]", "result": 0.161},
      {"measurement": "glycan array binding signal (z-score)", "setting": "Gal(b1-4)Glc", "result": -0.034},
      {"measurement": "glycan array binding signal (z-score)", "setting": "Gal(b1-4)Glc6S", "result": -0.328},
      {"measurement": "glycan array binding signal (z-score)", "setting": "Gal(b1-4)GlcNAc", "result": -0.376},
      {"measurement": "glycan array binding signal (z-score)", "setting": "[19]", "result": 0.435},
      {"measurement": "glycan array binding signal (z-score)", "setting": "Gal(b1-4)GlcNAc(b1-2)Man", "result": 0.008},
      {"measurement": "glycan array binding signal (z-score)", "setting": "[20]", "result": 0.264},
      {"measurement": "glycan array binding signal (z-score)", "setting": "[21]", "result": -0.032},
      {"measurement": "glycan array binding signal (z-score)", "setting": "[22]", "result": -0.323},
      {"measurement": "glycan array binding signal (z-score)", "setting": "[23]", "result": 0.235},
      {"measurement": "glycan array binding signal (z-score)", "setting": "[24]", "result": -0.115},
      {"measurement": "glycan array binding signal (z-score)", "setting": "[25]", "result": -0.774},
      {"measurement": "glycan array binding signal (z-score)", "setting": "[26]", "result": 0.575},
      {"measurement": "glycan array binding signal (z-score)", "setting": "[27]", "result": -0.214},
      {"measurement": "glycan array binding signal (z-score)", "setting": "[28]", "result": 1.6},
      {"measurement": "glycan array binding signal (z-score)", "setting": "[29]", "result": 0.002},
      {"measurement": "glycan array binding signal (z-score)", "setting": "[30]", "result": 0.086},
      {"measurement": "glycan array binding signal (z-score)", "setting": "[31]", "result": -0.185},
      {"measurement": "glycan array binding signal (z-score)", "setting": "[32]", "result": 0.116}
    ]}
  ]
}
